Source: the supplement of paper PMC4967469
Lines with a small IC50 respond at low doses; fits outside the tested doses are given as limits. AUC, from the same fit, is the share of area under the viability curve across the 256-fold dose range: 1 means no effect, lower means more sensitive. The top dose, if marked as inferred, was derived from the fitted curves, not read from the paper. Where an entry number is given, a second screen of the drug exists; the two often differ.

compound: NC(=O)[C@@H](CCC(F)(F)F)N(Cc1ccc(-c2ncon2)cc1F)S(=O)(=O)c1ccc(Cl)cc1 [BMS-708163]; assay: Viability of human cancer cell lines after 72 h of drug (GDSC screen); details: screen: GDSC drug entry 205; top dose inferred
Description: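 Human cancer cell lines in 384-well plates, medium with 10% serum, drug for 72 h over a 256-fold dose range (nine 2-fold or five 4-fold steps up to the top dose). Adherent lines were fixed and stained with the nucleic acid dye Syto60, suspension lines read with resazurin; signal relative to control wells, capped at 0 and 100%. One two-parameter sigmoid per drug and line, fitted in a mixed model over all curves with the slope shared within a line.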

Cell Line	AUC	IC50 [µM]
HCC1428 (breast, adherent, top dose 10.24 µM)	0.973	> 10.2
HCC1500 (breast, adherent, top dose 10.24 µM)	0.987	> 10.2
HCC1569 (breast, adherent, top dose 10.24 µM)	0.977	> 10.2
HCC1599 (breast, suspension, top dose 2.56 µM)	0.977	> 2.56
HCC1806 (breast, adherent, top dose 10.24 µM)	0.981	> 10.2
HCC1937 (breast, adherent, top dose 10.24 µM)	0.978	> 10.2
HCC1954 (breast, adherent, top dose 10.24 µM)	0.982	> 10.2
HCC2157 (breast, suspension, top dose 10.24 µM)	0.987	> 10.2
HCC2218 (breast, suspension, top dose 2.56 µM)	0.972	> 2.56
HCC2998 (large intestine, adherent, top dose 2.56 µM)	0.988	> 2.56
HCC-15 (lung squamous cell carcinoma, adherent, top dose 10.24 µM)	0.98	> 10.2
HCC-33 (small cell lung carcinoma, adherent, top dose 10.24 µM)	0.983	> 10.2
HCC-44 (lung adenocarcinoma, adherent, top dose 10.24 µM)	0.981	> 10.2
HCC-56 (large intestine, adherent, top dose 10.24 µM)	0.985	> 10.2
HCC-78 (lung adenocarcinoma, adherent, top dose 10.24 µM)	0.982	> 10.2
HCC-827 (lung adenocarcinoma, adherent, top dose 10.24 µM)	0.984	> 10.2
HCE-4 (oesophagus, adherent, top dose 10.24 µM)	0.992	> 10.2
HCT-15 (large intestine, adherent, top dose 10.24 µM)	0.987	> 10.2
HCT-116 (large intestine, adherent, top dose 10.24 µM)	0.983	> 10.2
HD-MY-Z (Hodgkin lymphoma, adherent, top dose 10.24 µM)	0.985	> 10.2

Cell Line	AUC	IC50 [µM]
HDLM-2 (Hodgkin lymphoma, suspension, top dose 10.24 µM)	0.987	> 10.2
HDQ-P1 (breast, adherent, top dose 10.24 µM)	0.985	> 10.2
HEC-1 (endometrium, adherent, top dose 10.24 µM)	0.989	> 10.2
HEL (acute myeloid leukaemia, semi-adherent, top dose 10.24 µM)	0.942	> 10.2
HGC-27 (stomach, adherent, top dose 10.24 µM)	0.99	> 10.2
HH (T-cell leukaemia, suspension, top dose 10.24 µM)	0.953	> 10.2
HL-60 (acute myeloid leukaemia, suspension, top dose 10.24 µM)	0.969	> 10.2
HLE (liver, adherent, top dose 10.24 µM)	0.989	> 10.2
HMV-II (melanoma, adherent, top dose 10.24 µM)	0.968	> 10.2
HN (head and neck, adherent, top dose 10.24 µM)	0.988	> 10.2
HO-1-N-1 (head and neck, adherent, top dose 10.24 µM)	0.988	> 10.2
HO-1-u-1 (head and neck, adherent, top dose 10.24 µM)	0.988	> 10.2
HOP-62 (lung adenocarcinoma, adherent, top dose 10.24 µM)	0.984	> 10.2
HOP-92 (large cell lung carcinoma, adherent, top dose 10.24 µM)	0.98	> 10.2
HOS (osteosarcoma, adherent, top dose 10.24 µM)	0.992	> 10.2
HPAC (pancreas, adherent, top dose 10.24 µM)	0.907	> 10.2
HPAF-II (pancreas, adherent, top dose 10.24 µM)	0.979	> 10.2
HSC-2 (head and neck, adherent, top dose 10.24 µM)	0.989	> 10.2
HSC-3 (head and neck, adherent, top dose 10.24 µM)	0.99	> 10.2
HSC-4 (head and neck, adherent, top dose 10.24 µM)	0.979	> 10.2
